Reference: the supplement of paper PMC3334620
In all, about 33,000 sequences were measured (“E-score (-0.5 to 0.5)”: median about -0.012, highest 2% from about 0.27 on). Some of the results follow.

Target: T1, Vhr1 (UniProt P40522)
T1 sequence: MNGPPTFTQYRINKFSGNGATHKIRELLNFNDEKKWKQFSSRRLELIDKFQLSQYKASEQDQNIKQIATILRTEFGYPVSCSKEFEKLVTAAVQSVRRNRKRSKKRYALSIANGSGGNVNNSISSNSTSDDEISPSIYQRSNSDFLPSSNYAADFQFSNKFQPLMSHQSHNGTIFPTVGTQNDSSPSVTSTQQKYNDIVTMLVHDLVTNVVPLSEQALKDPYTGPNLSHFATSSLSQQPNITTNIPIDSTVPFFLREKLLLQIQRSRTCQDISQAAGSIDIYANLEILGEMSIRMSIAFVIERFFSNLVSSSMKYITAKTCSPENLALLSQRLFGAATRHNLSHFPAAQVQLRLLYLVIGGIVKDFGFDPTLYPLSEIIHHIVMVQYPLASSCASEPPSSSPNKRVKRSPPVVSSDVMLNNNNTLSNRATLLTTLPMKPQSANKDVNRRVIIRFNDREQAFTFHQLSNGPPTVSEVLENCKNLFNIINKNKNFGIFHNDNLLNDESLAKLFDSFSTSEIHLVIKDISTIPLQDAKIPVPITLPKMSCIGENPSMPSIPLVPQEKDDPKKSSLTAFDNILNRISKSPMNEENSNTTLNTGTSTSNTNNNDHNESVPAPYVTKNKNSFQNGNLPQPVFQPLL
Experiment: PBM E-score (8-mer binding enrichment) (E-score (-0.5 to 0.5)); higher = stronger / more preferred TF binding; most listed sequences are background and not binding sites
Details: protein concentration: 200 nM; construct: GST-full length
Description: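 Universal 'all 10-mer' protein binding microarrays (Agilent AMADID 015681) probed with GST-tagged S. cerevisiae TFs (full-length or DBD) made by in vitro transcription/translation (PURExpress), about 100-200 nM. Bound TF was detected with fluorescent anti-GST. Each ungapped 8-mer (which stands for itself and its reverse complement) is scored by the PBM enrichment score (E-score), a modified Wilcoxon-Mann-Whitney statistic from -0.5 to +0.5, computed with the Universal PBM Analysis Suite. Scale: above 0.35 generally sequence-specific binding.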

Sequence | PBM E-score
ATCCCTGC | -0.0685
ACCCAGAA | 0.168
AAATTAGG | -0.0705
AGGACTAC | 0.067
ATTTAGGA | 0.0363
AAGAGTCC | -0.149
CAGGCACC | -0.144
GCCTCTGA | -0.0365
ATAATGAA | 0.0974
AGGAGATA | -0.111
GGGCCGTA | -0.123
ACGCGGAG | 0.157
CGGTCCCC | -0.112
GACCAGAC | -0.141
ATAGCAGG | 0.0907
AACTCAGG | -0.0804
CGCTGTAG | 0.0714
CGTCTTAG | -0.307
CATCTGTA | -0.12
AGTGGCTC | 0.13
AAGAACTA | -0.0721
AGGTACAG | -0.0563

Sequence | PBM E-score
CACCAACA | 0.187
GATATTGA | 0.0222
TCGAGTCA | 0.399
TAGAAACA | -0.169
GAATTTAA | -0.119
GTCGCCAA | 0.0702
TCACAACA | 0.12
ATCGCAGC | 0.0887
GCTGTAAA | -0.274
ATACACAA | 0.0897
AAACGGGG | -0.077
CCGGCAGC | 0.142
AGGCTCCG | 0.00274
CTACGCAG | 0.0899
CGTCTGGC | 0.0545
AGGAAGGA | -0.299
AACCCTTA | -0.0405
TACAGCAA | 0.134
CGGGTTCC | -0.0343
AACTGAAC | -0.0865
CCAGCTGA | 0.137
CATAAAAC | -0.0799

Sequence | PBM E-score
GGGGGAGA | -0.0487
ATTCGACA | -0.0266
AGGACGGC | -0.0936
AGCCGCGG | 0.178
GCTAGGCA | -0.298
ACACCTTC | 0.141
CCGCCTGC | 0.0663
CCACTCAA | 0.133
ATATGACA | 0.152
CTACCACA | 0.079
CATGGCGA | 0.184
ATGTTGGG | -0.0871
CTTACTAC | -0.0344
ATCGCCCC | 0.0247
GGAGGGAC | -0.0584
CAGGACTG | 0.0646
CCCCGGAC | -0.0118
CACCCGGA | 0.265
CTTACAGC | -0.158
CCACTCAG | 0.0902
CAACGGAG | 0.00986
GTCTCCAA | -0.0678

Sequence | PBM E-score
CCGACGTA | -0.12
GTACTAAA | -0.0304
CCTCCTAC | -0.133
ATTTTTGG | -0.23
ACTAGTGC | -0.0374
CACACCCA | 0.256
ACACTAAC | 0.144
CGATAGAC | 0.0252
AGGGGACT | -0.0607
GTGCGCAA | 0.0475
ACCTTTGG | -0.0844
GAGTTAGC | 0.0211
CCTTCATA | -0.0115
GCCCCGCC | 0.242
ACTAACGA | 0.146
CGTCGTGA | -0.118
CAAGAAGC | -0.0878
AGGCCTCA | -0.303
AGTAAACA | 0.00934
GTCGTCTA | -0.0586
